Data: the supplement of paper PMC3334620
Whole data set: some 33,000 sequences, median “E-score (-0.5 to 0.5)” near -0.012, cut for the highest 2% near 0.29. Some of the results follow.

What follows are sequences tested against T1, Ybr033w (UniProt P38073) (assay: PBM E-score (8-mer binding enrichment) (E-score (-0.5 to 0.5)); higher = stronger / more preferred TF binding; most listed sequences are background and not binding sites). Conditions: protein concentration: 200 nM; construct: GST-full length.
T1 sequence: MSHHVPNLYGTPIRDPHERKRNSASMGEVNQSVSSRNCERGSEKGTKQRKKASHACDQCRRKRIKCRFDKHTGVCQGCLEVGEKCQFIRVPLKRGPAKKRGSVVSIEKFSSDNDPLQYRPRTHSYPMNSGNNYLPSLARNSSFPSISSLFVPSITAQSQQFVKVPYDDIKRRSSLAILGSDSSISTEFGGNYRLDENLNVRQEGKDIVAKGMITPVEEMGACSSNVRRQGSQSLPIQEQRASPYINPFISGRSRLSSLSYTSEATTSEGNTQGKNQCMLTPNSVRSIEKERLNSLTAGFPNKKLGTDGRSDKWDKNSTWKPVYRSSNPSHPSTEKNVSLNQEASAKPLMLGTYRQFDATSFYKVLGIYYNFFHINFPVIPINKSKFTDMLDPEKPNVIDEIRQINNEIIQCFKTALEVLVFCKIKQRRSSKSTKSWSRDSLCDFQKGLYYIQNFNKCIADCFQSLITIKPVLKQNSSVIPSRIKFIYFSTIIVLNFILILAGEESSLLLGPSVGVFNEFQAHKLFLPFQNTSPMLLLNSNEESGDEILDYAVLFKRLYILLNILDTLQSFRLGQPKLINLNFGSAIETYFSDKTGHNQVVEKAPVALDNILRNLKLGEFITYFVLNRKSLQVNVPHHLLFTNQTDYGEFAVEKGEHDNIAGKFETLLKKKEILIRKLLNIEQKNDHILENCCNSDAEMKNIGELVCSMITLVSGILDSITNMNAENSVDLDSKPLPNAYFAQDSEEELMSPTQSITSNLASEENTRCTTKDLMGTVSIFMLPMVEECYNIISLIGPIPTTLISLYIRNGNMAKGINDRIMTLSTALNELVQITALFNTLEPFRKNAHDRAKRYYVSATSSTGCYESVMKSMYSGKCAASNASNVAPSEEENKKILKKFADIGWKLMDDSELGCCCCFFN
Outline: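 For each ungapped eight-base word taken together with its reverse complement, the Universal PBM Analysis Suite assigned an E-score. Binding data came from GST-tagged yeast transcription factors, applied at about 100-200 nM, on universal all-10-mer Agilent arrays made double-stranded by primer extension. Fluorescent anti-GST marked bound protein, and scans were normalised with masliner.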

Sequence | PBM E-score
TATTTCAA | 0.338
CCTTAGGA | -0.0302
AGGGGTCC | -0.343
ACCGTTTG | 0.0292
CGCCCAGA | -0.174
TGAGCGCA | -0.0394
AGGGCCCC | -0.36
CCTGGCGA | -0.0733
TACCGTCA | -0.0481
AAAGTTGC | 0.0307
TAGCTCAA | 0.175
CATTGGGC | -0.222
GACTTCAC | -0.0135
ATCCTTCA | 0.146
GCGAGCGC | -0.154
GCACTCAC | -0.0579
GGCTTAAA | 0.0524
CCACGTTC | -0.138
ATAACAGC | 0.11
TGAAGCCA | 0.0247
AAGCTGGT | -0.0671
CTCTCAAA | 0.162
GGTAAGGA | 0.00938
ATTGCTTG | 0.2
CGTCCACC | -0.2

Sequence | PBM E-score
AAAACAAT | 0.192
AATAATAA | 0.399
GTCCAAGA | -0.224
TCACGCCA | -0.081
AAGTACCA | 0.0744
AGACTCCA | -0.095
TAGTTGAA | 0.307
TATAGGCA | -0.031
AATTAAAT | 0.276
CCATTTCC | -0.00462
CAGCCGAG | -0.145
GCGTTTTA | 0.0531
CACGATAC | -0.172
CTGTCTCA | -0.14
AGGGCCAC | -0.19
AGTGCGGA | 0.28
CCGGCTCC | -0.21
CAATATCC | 0.253
GTTCGACA | 0.0661
ACGTAATG | -0.0331
AGCTTTGG | -0.0527
AAACAGAT | 0.148
ATCCCTGA | -0.0831
AGGGTCCC | -0.265
CCGAAAAG | 0.127

Sequence | PBM E-score
GCGAAGCC | -0.268
GTGCCAAC | 0.0403
ATGGGAGA | -0.126
CTGTTTCA | 0.0573
TAAACTTA | 0.166
AGGCGCGG | -0.246
GGAGAACC | -0.108
AAAATCGT | 0.195
CAGAGCGC | -0.205
AGATCCAT | 0.00666
CTCAGGAA | 0.134
GATTAGGA | 0.0215
TTAAGCAA | 0.164
CTGAGACA | -0.194
AGTTTAAG | 0.0764
ATCCAGTG | 0.149
CCGCGTTA | -0.095
ACGTCGGG | -0.399
GCCGGACA | -0.103
CTCCTGGA | -0.122
GCGCTCGA | -0.181
TAATTCTA | 0.288
AGCCCATA | 0.0408
GACTGTGA | 0.0158
AGCTCTTA | -0.114

Sequence | PBM E-score
GGCCGCCA | -0.319
CCATCTCC | -0.132
CTAGATGC | -0.132
AGGATTCC | -0.196
AGGAACCT | 0.0186
ACTCGCTC | 0.00902
ATAGGCAA | -0.023
ATGTTATA | 0.151
CGTCGGAA | 0.162
AGGCTTAA | -0.111
AAATGAAA | 0.268
CGACTCGA | -0.0473
ATCTCCGC | -0.126
GGTATGTA | -0.00685
CAAGAACA | 0.0281
ACCCATCT | -0.0859
CCACTTGC | -0.0925
CTCCGAAA | 0.0352
ACGAGGGA | 0.00094
CGCAAAGC | -0.128
GAGATGGA | -0.197
GAGAAACA | 0.247
CGGAGGGA | -0.057
GCAGCGGC | -0.182
AAAGCCGC | -0.0549

Sequence | PBM E-score
ATCCCTAA | -0.195
CGGCCAAC | -0.188
GAGTGTGA | 0.0244
CACACGTA | -0.138
CCGTTGCG | -0.192
ACGGTTAT | -0.0962
CAATGAGA | 0.00572
ACCGTCCT | -0.0333
CCTTGGAG | -0.035
AGGTAGTG | -0.0879
AACGATTG | -0.00547
AAATTGGA | 0.172
ACCAGGTA | -0.225
ATGTCGGA | 0.0711
GAATTACA | 0.208
GCGGGAAA | 0.128
AGATCGAA | 0.249
CTCTCGCC | -0.231
GGCTGAAA | 0.13
AGTGGCCG | -0.271
CGTGACCC | -0.187
GTTTCTTA | 0.127
CCCATCGC | -0.184
AGATAGTC | -0.0515
ATTCATCC | 0.349

Sequence | PBM E-score
AAAAGGTT | 0.0857
CAGTGATC | 0.00421
CCCTGAGG | -0.23
CCATAATA | 0.264
TCTAGAGA | -0.123
CGTATTAG | 0.279
ACGCGCGG | -0.177
ACAATCGA | 0.232
ACAAAGTG | 0.204
TATACTGA | 0.351
CTCATAGA | 0.0395
AGATAATG | 0.181
CGTTTGCC | 0.0522
GCCATCGC | -0.189
ATGAGGAC | -0.0357
CACGCCGG | -0.165
TGAAAAAA | 0.246
ATTATTAA | 0.316
TGTGATAA | 0.214
AAGTGCAA | 0.044
CACATGGA | -0.137
TGATTCAA | 0.172
CAACCGGG | -0.0573
TCGCCCAA | -0.0573
ATGAATAC | 0.0848

Sequence | PBM E-score
GAATAAAA | 0.207
CGTCGGTA | -0.265
AGTCACCC | 0.0165
AAACATGG | 0.0874
ATGCACAA | -0.00047
AGGGCAGC | -0.32
GTTGTAAA | 0.137
ATATGATG | 0.139
TCCTAAGA | -0.0263
GCTTGATA | 0.185
ACCAGCGC | 0.0467
GCATCCCC | -0.141
ACGTGTAG | -0.0472
ACCACGTG | -0.101
AACGGGAA | 0.248
GCATACAA | 0.165
ACGGCGAG | -0.202
GGACTCTA | -0.106
ATATCGGG | 0.18
TCAAATGA | 0.09
AATGAAGT | 0.217
ATTAAGTC | 0.184
